The other results are listed elsewhere or left out. Most values come without repeats; read them as rough.
These molecules were tested on MEL-HO (assay: cell count relative to DMSO control; melanoma cells; higher = more viable cells). Details: library dose: low library concentration; 72 h.
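Note: cell number obtained by counting DAPI-stained nuclei in high-throughput microscope images with image analysis software, screen run in 1,536-well plates.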

| SMILES | cell count [%] |
| --- | --- |
| COc1ccc(C2=N[C@@H](c3ccc(Cl)cc3)[C@@H](c3ccc(Cl)cc3)N2C(=O)N2CCNC(=O)C2)c(OC(C)C)c1 [Nutlin-3] + C=C(c1ccc(C(=O)O)cc1)c1cc2c(cc1C)C(C)(C)CCC2(C)C [Bexarotene] (first compound 0.1 µM, partner dose 2 µM) | 82.8 |
| Cc1cc(Nc2cc(N3CCN(C)CC3)nc(/C=C/c3ccccc3)n2)n[nH]1 + Cc1nc(Nc2ncc(C(=O)Nc3c(C)cccc3Cl)s2)cc(N2CCN(CCO)CC2)n1 [dasatanib] (first compound 0.04 µM, partner dose 0.004 µM) | 90.1 |
| Cc1cn(-c2cc(NC(=O)c3ccc(C)c(Nc4nccc(-c5cccnc5)n4)c3)cc(C(F)(F)F)c2)cn1 [nilotinib] + CC(=O)O[C@@]12CO[C@@H]1C[C@H](O)[C@@]1(C)C(=O)[C@H](O)C3=C(C)[C@@H](OC(=O)[C@H](O)[C@@H](NC(=O)OC(C)(C)C)c4ccccc4)C[C@@](O)([C@@H](OC(=O)c4ccccc4)[C@H]21)C3(C)C [Docetaxel] (first compound 0.2 µM, partner dose 0.0001 µM) | 68.5 |
| Cn1c(=O)n(-c2ccc(C(C)(C)C#N)cc2)c2c3cc(-c4cnc5ccccc5c4)ccc3ncc21 + CO[C@H]1C[C@@H]2CC[C@@H](C)[C@@](O)(O2)C(=O)C(=O)N2CCCC[C@H]2C(=O)O[C@H]([C@H](C)C[C@@H]2CC[C@@H](OCCO)[C@H](OC)C2)CC(=O)[C@H](C)/C=C(\C)[C@@H](O)[C@@H](OC)C(=O)[C@H](C)C[C@H](C)/C=C/C=C/C=C/1C [everolimus] (first compound 0.004 µM, partner dose 0.02 µM) | 54.5 |
| COc1ccc(C2=N[C@@H](c3ccc(Cl)cc3)[C@@H](c3ccc(Cl)cc3)N2C(=O)N2CCNC(=O)C2)c(OC(C)C)c1 [Nutlin-3] + C[C@]1(c2nc3c(C(N)=O)cccc3[nH]2)CCCN1 [Veliparib] (first compound 0.1 µM, partner dose 1.4 µM) | 102 |
| COc1ccc(C2=N[C@@H](c3ccc(Cl)cc3)[C@@H](c3ccc(Cl)cc3)N2C(=O)N2CCNC(=O)C2)c(OC(C)C)c1 [Nutlin-3] + Nc1cccc2c1CN(C1CCC(=O)NC1=O)C2=O [lenalidomide] (first compound 0.1 µM, partner dose 1 µM) | 112 |
| CC(C)C[C@H](NC(=O)[C@H](Cc1ccccc1)NC(=O)c1cnccn1)B(O)O [Bortezomib] + O=C(O)[C@@H]1[O][Sb](=[O])([O][Sb]2(=[O])[O][C@H]([C@H](O)CO)[C@H](O)[C@H](C(=O)O)[O]2)[O][C@H]([C@H](O)CO)[C@@H]1O [stibogluconate] (first compound 0.001 µM, partner dose 2 µM) | 107 |
| COc1ccc(C2=N[C@@H](c3ccc(Cl)cc3)[C@@H](c3ccc(Cl)cc3)N2C(=O)N2CCNC(=O)C2)c(OC(C)C)c1 [Nutlin-3] + Nc1ccn([C@@H]2O[C@H](CO)[C@@H](O)C2(F)F)c(=O)n1 [gemcitabine] (first compound 0.1 µM, partner dose 0.0004 µM) | 78.1 |
| Cc1cc(Nc2cc(N3CCN(C)CC3)nc(/C=C/c3ccccc3)n2)n[nH]1 + CCCS(=O)(=O)Nc1ccc(F)c(C(=O)c2c[nH]c3ncc(Cl)cc23)c1F [PLX4720] (first compound 0.04 µM, partner dose 0.08 µM) | 96.1 |
| Cn1c(=O)n(-c2ccc(C(C)(C)C#N)cc2)c2c3cc(-c4cnc5ccccc5c4)ccc3ncc21 + COc1ccc(Cl)c(Nc2nc3ccccc3nc2NS(=O)(=O)c2cccc(NC(=O)C(C)(C)N)c2)c1 [XL147] (first compound 0.004 µM, partner dose 0.8 µM) | 88.8 |
| Cc1cn(-c2cc(NC(=O)c3ccc(C)c(Nc4nccc(-c5cccnc5)n4)c3)cc(C(F)(F)F)c2)cn1 [nilotinib] + NC(=O)c1ccc(N(C(N)=O)c2c(F)cccc2F)nc1-c1ccc(F)cc1F [VX702] (first compound 0.2 µM, partner dose 0.4 µM) | 108 |
| Cc1cn(-c2cc(NC(=O)c3ccc(C)c(Nc4nccc(-c5cccnc5)n4)c3)cc(C(F)(F)F)c2)cn1 [nilotinib] + O=C(O)c1ccc2c(c1)nc(Nc1cccc(Cl)c1)c1ccncc12 [CX4945] (first compound 0.2 µM, partner dose 0.4 µM) | 83 |
| Cc1cn(-c2cc(NC(=O)c3ccc(C)c(Nc4nccc(-c5cccnc5)n4)c3)cc(C(F)(F)F)c2)cn1 [nilotinib] + C[C@]1(O)C[C@@H](c2nc(-c3ccc4ccc(-c5ccccc5)nc4c3)c3c(N)nccn32)C1 [OSI906] (first compound 0.2 µM, partner dose 0.4 µM) | 87 |
| CC(C)C[C@H](NC(=O)[C@H](Cc1ccccc1)NC(=O)c1cnccn1)B(O)O [Bortezomib] + Nc1nc(F)nc2c1ncn2[C@@H]1O[C@H](CO)[C@@H](O)[C@@H]1O [fludarabine] (first compound 0.001 µM, partner dose 0.2 µM) | 94.4 |
| COc1ccc(C2=N[C@@H](c3ccc(Cl)cc3)[C@@H](c3ccc(Cl)cc3)N2C(=O)N2CCNC(=O)C2)c(OC(C)C)c1 [Nutlin-3] + CNC(=O)c1cc(Oc2ccc(NC(=O)Nc3ccc(Cl)c(C(F)(F)F)c3)cc2)ccn1 [sorafenib] (first compound 0.1 µM, partner dose 0.4 µM) | 90.8 |
| COc1ccc(C2=N[C@@H](c3ccc(Cl)cc3)[C@@H](c3ccc(Cl)cc3)N2C(=O)N2CCNC(=O)C2)c(OC(C)C)c1 [Nutlin-3] + COCC[n+]1c2c(n(Cc3cnccn3)c1C)C(=O)c1ccccc1C2=O [YM155] (first compound 0.1 µM, partner dose 0.0004 µM) | 114 |
| COc1ccc(C2=N[C@@H](c3ccc(Cl)cc3)[C@@H](c3ccc(Cl)cc3)N2C(=O)N2CCNC(=O)C2)c(OC(C)C)c1 [Nutlin-3] + Nc1nc(F)nc2c1ncn2[C@@H]1O[C@H](CO)[C@@H](O)[C@@H]1O [fludarabine] (first compound 0.1 µM, partner dose 0.2 µM) | 114 |
| COc1ccc(C2=N[C@@H](c3ccc(Cl)cc3)[C@@H](c3ccc(Cl)cc3)N2C(=O)N2CCNC(=O)C2)c(OC(C)C)c1 [Nutlin-3] + CC(C)C[C@H](NC(=O)[C@H](Cc1ccccc1)NC(=O)c1cnccn1)B(O)O [Bortezomib] (first compound 0.1 µM, partner dose 0.001 µM) | 97.7 |
| CC(C)C[C@H](NC(=O)[C@H](Cc1ccccc1)NC(=O)c1cnccn1)B(O)O [Bortezomib] + CNC(=O)c1cc(Oc2ccc(NC(=O)Nc3ccc(Cl)c(C(F)(F)F)c3)cc2)ccn1 [sorafenib] (first compound 0.001 µM, partner dose 0.4 µM) | 87.9 |
| Cc1cc(Nc2cc(N3CCN(C)CC3)nc(/C=C/c3ccccc3)n2)n[nH]1 + Nc1ccn([C@@H]2O[C@H](CO)[C@@H](O)C2(F)F)c(=O)n1 [gemcitabine] (first compound 0.04 µM, partner dose 0.0004 µM) | 97.8 |
| CC(C)C[C@H](NC(=O)[C@H](Cc1ccccc1)NC(=O)c1cnccn1)B(O)O [Bortezomib] + Cc1nc(Nc2ncc(C(=O)Nc3c(C)cccc3Cl)s2)cc(N2CCN(CCO)CC2)n1 [dasatanib] (first compound 0.001 µM, partner dose 0.004 µM) | 87.9 |
| COc1ccc(C2=N[C@@H](c3ccc(Cl)cc3)[C@@H](c3ccc(Cl)cc3)N2C(=O)N2CCNC(=O)C2)c(OC(C)C)c1 [Nutlin-3] + C[C@@H](Oc1cc(-c2cnn(C3CCNCC3)c2)cnc1N)c1c(Cl)ccc(F)c1Cl [Crizotinib] (first compound 0.1 µM, partner dose 0.2 µM) | 89.8 |
| COc1ccc(C2=N[C@@H](c3ccc(Cl)cc3)[C@@H](c3ccc(Cl)cc3)N2C(=O)N2CCNC(=O)C2)c(OC(C)C)c1 [Nutlin-3] + OCc1c[nH]c2ccccc12 [Indole-3-carbinol] (first compound 0.1 µM, partner dose 0.8 µM) | 98.4 |
| COc1ccc(C2=N[C@@H](c3ccc(Cl)cc3)[C@@H](c3ccc(Cl)cc3)N2C(=O)N2CCNC(=O)C2)c(OC(C)C)c1 [Nutlin-3] + CS(=O)(=O)CCNCc1ccc(-c2ccc3ncnc(Nc4ccc(OCc5cccc(F)c5)c(Cl)c4)c3c2)o1 [lapatinib] (first compound 0.1 µM, partner dose 0.8 µM) | 105 |
| Cc1cn(-c2cc(NC(=O)c3ccc(C)c(Nc4nccc(-c5cccnc5)n4)c3)cc(C(F)(F)F)c2)cn1 [nilotinib] + CC(=O)c1c(C)c2cnc(Nc3ccc(N4CCNCC4)cn3)nc2n(C2CCCC2)c1=O [palbociclib] (first compound 0.2 µM, partner dose 0.04 µM) | 95.1 |
| Cc1cn(-c2cc(NC(=O)c3ccc(C)c(Nc4nccc(-c5cccnc5)n4)c3)cc(C(F)(F)F)c2)cn1 [nilotinib] + CCN(CC)CCNC(=O)c1c(C)[nH]c(/C=C2\C(=O)Nc3ccc(F)cc32)c1C [sunitinib] (first compound 0.2 µM, partner dose 0.4 µM) | 95 |
